# Some of the results follow. Sequences were assembled here from the parent chain. Values near 0.05 are background.
# B1: TEV protease; numbered along this chain (parent)
# chain: MGESLFKGPRDYNPISSSICHLTNESDGHTTSLYGIGFGPFIITNKHLFRRNNGTLVVQSLHGVFKVKDTTTLQQHLVDGRDMIIIRMPKDFPPFPQKLKFREPQREERICLVTTNFQTKSMSSMVSDTSCTFPSGDGIFWKHWIQTKDGQCGSPLVSTRDGFIVGIHSASNFTNTNNYFTSVPKNFMELLTNQEAQQWVSGWRLNADSVLWGGHKVFMVKPEEPFQPVKEATQL
# Variants of: B1
# Assay: raw area under fraction-flipped curve 0-4 h after induction (AUC4h, not background-subtracted), DNA-recorder readout of cleavage of the substrate (dimensionless); higher = more cleavage of the substrate by the protease variant
# Conditions: temperature: 34 °C; time window: 0-4 h after rhamnose induction
# Description: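 In vivo DNA recorder in E. coli TOP10(DE3) ΔrhaA at 34 °C. Each TEVp single-site mutant (parent TEVp 0) is paired with a single-site variant of the 7-mer TEVs (canonical ENLYFQ|S). The substrate sits between flexible linkers in a Bxb1-sfGFP-TEVs-SsrA fusion, so cleavage stabilises Bxb1 and speeds flipping of a recombination array, read by NGS. The value is the raw area under the fraction-flipped curve over 0-4 h after rhamnose induction (AUC4h), with ≥20 reads per time point. It is not background-subtracted; inactive controls average about 0.047.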
# 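Also: Bxb1 expression induced with 0.2% (w/v) L-rhamnose at OD600 near 0.5, cultures sampled hourly, flipped fraction per protease–substrate barcode pair counted by paired-end Illumina sequencing.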
Variant,area with substrate EALYFQS,area with substrate ECLYFQS,area with substrate EDLYFQS,area with substrate EELYFQS,area with substrate EGLYFQS,area with substrate EILYFQS,area with substrate EKLYFQS,area with substrate ELLYFQS,area with substrate EPLYFQS,area with substrate EQLYFQS,area with substrate ERLYFQS,area with substrate ESLYFQS,area with substrate EVLYFQS,area with substrate EWLYFQS,area with substrate EHLYFQS,area with substrate EMLYFQS,area with substrate EYLYFQS,area with substrate EFLYFQS,area with substrate ETLYFQS
I15S,0.0823,0.0734,0.0883,0.0996,0.0758,0.0759,0.0831,0.0846,0.0914,0.0805,0.0717,0.0684,0.0889,0.0765,,,,,
I15C,0.118,0.0712,0.16,0.123,0.149,0.1,0.0987,,0.123,0.122,0.0784,0.095,0.0353,,0.0913,0.11,0.119,,
R10P,0.128,0.096,0.114,,0.1,0.0934,0.0973,,0.009,0.118,0.0653,0.0894,0.0932,0.0991,0.117,,0.108,0.113,0.0965
R10G,0.121,0.0884,0.113,0.118,0.0441,0.089,0.11,,0.112,0.115,0.0784,0.108,0.104,,0.0737,0.115,0.0921,,
R10V,0.096,0.0567,0.103,,0.0722,0.0723,0.0879,0.071,0.102,0.0775,0.0944,0.0932,,0.0684,,0.0536,0.0626,0.056,0.104
Y12W,0.108,0.0922,0.107,0.104,0.0962,0.0952,0.107,,0.112,0.0906,0.0986,0.0896,0.0884,,0.0947,0.115,0.0908,,
Y12K,0.116,0.114,0.111,0.09,0.0925,0.0796,0.0949,0.075,0.132,0.0998,0.0989,0.0878,,0.102,0.0928,0.107,0.118,,0.101
Y12S,0.115,0.0878,0.106,0.081,0.0838,0.0823,0.0902,0.0869,0.0984,0.0981,0.0903,0.0893,0.0885,,,0.116,,,0.115
Y12H,0.122,0.0911,0.109,,0.103,0.113,0.131,0.0917,0.117,0.129,,0.0983,0.0887,0.115,0.149,,,0.0958,0.104
T30F,0.0958,0.0968,0.135,,0.0944,0.0874,,0.101,0.107,0.121,0.0989,0.105,0.101,,0.0966,0.11,,,
C20R,0.0258,0.0459,0.05,0.0543,0.0306,0.0521,0.0523,0.0499,0.0408,0.0525,0.0591,0.0482,0.0313,0.0745,0.0454,0.0497,0.052,,0.0535
C20M,0.0983,,0.126,0.146,0.0955,0.121,0.0962,,,0.105,0.101,0.0901,0.0991,,,0.0779,0.0879,0.0806,
S4M,0.0366,0.0802,,,0.103,0.0667,0.0804,0.0888,,0.115,0.0761,0.0998,0.0685,0.0753,0.0904,0.0848,,0.0907,
S4R,0.13,0.0961,0.176,0.165,,0.0972,0.14,0.126,0.056,0.162,0.0337,0.134,0.12,,,0.157,0.145,,
S4G,0.152,0.14,0.141,0.159,0.12,0.11,0.122,0.124,0.102,0.125,0.117,0.125,0.116,0.124,0.145,0.116,0.133,,
T31F,0.0996,,,,0.0733,0.104,0.115,,0.0975,0.0809,0.0935,0.107,0.0893,,0.0542,0.0995,0.0945,0.0701,0.11
T31W,0.138,0.098,0.169,,,0.094,0.114,0.084,0.101,0.111,0.0796,0.0915,0.108,0.076,0.101,0.0831,0.1,,
L33P,0.0377,0.0538,0.0528,,0.0518,0.0394,,0.0569,,0.04,0.0313,0.0492,0.0491,0.0481,0.0368,0.0416,0.0565,,0.0511
D11A,0.119,0.0939,0.131,0.0597,0.107,0.0794,0.102,0.098,0.132,0.105,,0.103,0.0864,0.0898,0.0604,0.0912,0.103,,
D11Q,0.104,0.0974,,0.101,0.0674,0.0939,0.0942,0.103,0.0894,,0.0989,0.0925,0.0794,0.0861,,0.102,0.103,0.0878,
D11L,0.0922,0.0782,0.0917,0.099,0.0895,0.0824,0.0804,0.0712,0.104,0.0865,0.075,0.0822,0.0814,0.074,0.0839,0.0765,0.0739,,
D27Q,0.15,0.0404,0.111,0.0687,,,0.11,0.0988,0.113,0.103,0.0911,0.0694,0.0652,,,0.107,,0.0963,
D27K,0.0858,0.0826,0.11,0.083,,0.0681,0.115,0.083,0.112,0.098,,0.087,0.0958,0.0886,,0.0974,,,
H21D,0.0709,0.0726,,0.0995,0.0807,0.0801,0.0615,0.0832,,0.0503,0.103,0.0863,0.064,0.0783,0.0784,0.105,0.0766,0.0738,

Variant,area with substrate EALYFQS,area with substrate ECLYFQS,area with substrate EDLYFQS,area with substrate EELYFQS,area with substrate EGLYFQS,area with substrate EILYFQS,area with substrate EKLYFQS,area with substrate ELLYFQS,area with substrate EPLYFQS,area with substrate EQLYFQS,area with substrate ERLYFQS,area with substrate ESLYFQS,area with substrate EVLYFQS,area with substrate EWLYFQS,area with substrate EHLYFQS,area with substrate EMLYFQS,area with substrate EYLYFQS,area with substrate EFLYFQS,area with substrate ETLYFQS
H21Y,0.0965,0.0852,,,0.0719,0.0843,0.0954,0.078,,0.11,,,0.103,0.0882,0.094,0.119,,0.0669,0.0963
H21N,0.113,0.087,,0.0976,0.0876,0.0733,0.0977,,,0.0937,0.0904,0.0934,0.0902,,0.082,0.11,,0.0859,
H21G,0.128,0.117,0.119,0.116,0.0907,0.0879,0.101,0.0744,0.11,0.111,0.113,0.0926,0.0884,,0.118,0.14,0.0942,,0.109
S18R,0.0965,0.115,0.103,,0.105,0.089,0.0874,,,,0.0957,0.0914,,,0.0753,0.129,0.103,0.0755,
T23I,0.116,0.0983,0.103,,0.13,0.0859,0.128,,,0.152,0.105,0.102,0.115,0.104,,0.138,,,0.167
T23S,0.103,0.103,,0.102,0.102,0.0974,0.101,0.0993,0.104,0.0982,0.104,0.0911,0.0841,0.0913,,0.117,,0.0962,0.1
T23R,0.0942,0.0932,0.0966,0.119,0.093,0.0787,0.086,,0.114,0.129,,0.0993,0.0849,0.0944,0.0802,0.111,,,
S26C,0.108,0.0812,0.118,,,0.087,0.1,0.0991,,0.112,0.0583,0.0881,0.0861,,0.102,0.0822,,0.0955,0.112
N13K,0.0984,0.0838,0.11,,0.089,0.101,0.0822,,0.0893,0.112,0.105,0.0897,0.0636,0.0963,,,,,0.113
N13R,0.112,0.103,,0.117,0.0938,0.101,0.117,,,,0.104,0.0968,0.112,,0.153,0.132,0.116,0.0986,0.125
P14C,0.106,0.0898,0.105,0.0851,0.0934,0.0911,0.0932,,0.106,0.106,0.0938,0.106,0.0917,0.099,0.0912,0.0959,0.0777,,0.124
P14W,0.119,0.106,0.118,,0.0943,0.0985,0.113,0.117,0.141,0.118,0.104,0.11,0.0892,0.099,,0.12,0.0929,,0.188
H29L,0.133,0.115,0.165,0.153,0.0961,0.107,0.112,0.0948,0.123,0.122,0.12,0.0911,0.113,0.0869,0.113,0.139,,,0.137
H29E,0.14,0.102,,0.104,,0.105,0.117,0.0931,0.111,0.142,0.116,0.0893,0.105,,,0.135,0.0036,,
H29R,0.118,0.0894,,0.0811,0.0661,0.0814,0.111,,0.104,0.0655,0.0654,0.0995,,0.0406,0.0978,0.107,,,0.105
H29A,0.114,0.12,,0.111,0.101,,,0.098,,0.107,0.0978,0.0867,0.0955,,0.0464,0.123,,0.111,0.118
I19H,0.0832,0.0892,,,,0.0816,0.0856,0.0814,0.097,,0.0777,0.107,0.0785,0.0847,0.0714,0.0941,,,
L22W,0.0429,0.0416,0.0441,0.0464,,0.0252,0.0524,0.0389,0.0596,0.0516,0.049,0.041,0.0428,0.0548,,0.0467,0.0472,0.0646,0.0576
L22K,0.0558,0.0474,,0.0493,0.0525,0.0333,0.0471,,0.0398,0.0429,0.0283,0.0404,0.0238,0.0376,0.0426,0.0418,0.049,0.0403,
S17F,0.135,0.0873,0.103,0.11,0.0968,0.0913,0.0768,,0.117,0.0982,0.101,0.104,,0.0836,0.0918,0.103,0.0836,,0.0871
S17D,0.115,0.098,0.112,,0.0973,0.104,0.154,0.104,0.137,0.126,0.13,0.103,0.0923,0.0795,0.103,0.118,0.0683,0.0843,
S17Q,0.135,0.125,0.152,,0.108,0.136,,0.0944,,0.134,0.099,0.122,0.111,0.116,0.122,0.0895,,0.112,0.124
G2M,0.145,0.127,,,,0.123,0.121,,,0.155,0.134,0.118,0.154,,,0.148,,,0.16

# Source: the supplement of paper PMC12217912
